# The list shows a part of the results. The list includes weakly bound sequences.
# Target: T1, MBP-FoxP3dN (UniProt Q99JB6)
# T1 sequence: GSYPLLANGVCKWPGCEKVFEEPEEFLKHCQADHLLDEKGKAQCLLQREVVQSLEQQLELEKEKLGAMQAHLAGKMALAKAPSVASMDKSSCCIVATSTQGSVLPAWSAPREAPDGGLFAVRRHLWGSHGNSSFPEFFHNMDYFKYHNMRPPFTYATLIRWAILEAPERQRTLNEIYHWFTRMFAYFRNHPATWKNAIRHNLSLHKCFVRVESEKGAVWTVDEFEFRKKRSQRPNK
# Assay: PD-seq (MBP pull-down with sequencing)
# Settings: 20 mM Tris-HCl pH 7.5, 100 mM NaCl, 1.5 mM MgCl2, 0.4 uM protein, 0.1 uM dsDNA library, 30 min, room temperature, amylose pull-down; high values mean tight binding; double strand, one strand shown
row,Sequence,binding signal (RPM ratio (pull-down/input))
1,GATGATTGTTCTCCCAGCTGATGAATTCGGAGAGTCGAGTAAACAAATTTTCCTAATCTTTCTGTTCAAGCGCCATCTAC,0.24
2,GATGATTGTTCTCCCAGCTGATGAATTCCCGCTTTCGAGTAAACAAATTTTCCTAATCTTTCTGTTCAAGCGCCATCTAC,1.11
3,GATGATTGTTCTCCCAGCTGATGAATTAAAGTGATCGAGTAAACAAATTTTCCTAATCTTTCTGTTCAAGCGCCATCTAC,0.472
4,GATGATTGTTCTCCCAGCTGATGAATTACCAGCGTCGAGTAAACAAATTTTCCTAATCTTTCTGTTCAAGCGCCATCTAC,0.436
5,GATGATTGTTCTCCCAGCTGATGAATTTCCTGCATCGAGTAAACAAATTTTCCTAATCTTTCTGTTCAAGCGCCATCTAC,0.719
6,GATGATTGTTCTCCCAGCTGATGAATTTTGATAGTCGAGTAAACAAATTTTCCTAATCTTTCTGTTCAAGCGCCATCTAC,1.64
7,GATGATTGTTCTCCCAGCTGATGAATTATTCTAATCGAGTAAACAAATTTTCCTAATCTTTCTGTTCAAGCGCCATCTAC,0.362
8,GATGATTGTTCTCCCAGCTGATGAATTGTACTGATCGAGTAAACAAATTTTCCTAATCTTTCTGTTCAAGCGCCATCTAC,0.491
9,GATGATTGTTCTCCCAGCTGATGAATTTACAGTTTCGAGTAAACAAATTTTCCTAATCTTTCTGTTCAAGCGCCATCTAC,0.665
10,GATGATTGTTCTCCCAGCTGATGAATTAGCGAGCTCGAGTAAACAAATTTTCCTAATCTTTCTGTTCAAGCGCCATCTAC,0.313
11,GATGATTGTTCTCCCAGCTGATGAATTACTTAATTCGAGTAAACAAATTTTCCTAATCTTTCTGTTCAAGCGCCATCTAC,0.322
12,GATGATTGTTCTCCCAGCTGATGAATTTGAGCAATCGAGTAAACAAATTTTCCTAATCTTTCTGTTCAAGCGCCATCTAC,2.15
13,GATGATTGTTCTCCCAGCTGATGAATTGGCCGAGTCGAGTAAACAAATTTTCCTAATCTTTCTGTTCAAGCGCCATCTAC,0.215
14,GATGATTGTTCTCCCAGCTGATGAATTGGACTGTTCGAGTAAACAAATTTTCCTAATCTTTCTGTTCAAGCGCCATCTAC,0.423
15,GATGATTGTTCTCCCAGCTGATGAATTAGACGAATCGAGTAAACAAATTTTCCTAATCTTTCTGTTCAAGCGCCATCTAC,0.249
16,GATGATTGTTCTCCCAGCTGATGAATTTATGTTATCGAGTAAACAAATTTTCCTAATCTTTCTGTTCAAGCGCCATCTAC,3.24
17,GATGATTGTTCTCCCAGCTGATGAATTGCTCTAATCGAGTAAACAAATTTTCCTAATCTTTCTGTTCAAGCGCCATCTAC,0.438
18,GATGATTGTTCTCCCAGCTGATGAATTAGTGTCATCGAGTAAACAAATTTTCCTAATCTTTCTGTTCAAGCGCCATCTAC,1.75
19,GATGATTGTTCTCCCAGCTGATGAATTGCTATCGTCGAGTAAACAAATTTTCCTAATCTTTCTGTTCAAGCGCCATCTAC,0.891
20,GATGATTGTTCTCCCAGCTGATGAATTAATTTGATCGAGTAAACAAATTTTCCTAATCTTTCTGTTCAAGCGCCATCTAC,0.653

row,Sequence,binding signal (RPM ratio (pull-down/input))
1,GATGATTGTTCTCCCAGCTGATGAATTACGTGTTTCGAGTAAACAAATTTTCCTAATCTTTCTGTTCAAGCGCCATCTAC,1.3
2,GATGATTGTTCTCCCAGCTGATGAATTAATCGCATCGAGTAAACAAATTTTCCTAATCTTTCTGTTCAAGCGCCATCTAC,1.04
3,GATGATTGTTCTCCCAGCTGATGAATTCGTATCTTCGAGTAAACAAATTTTCCTAATCTTTCTGTTCAAGCGCCATCTAC,1.59
4,GATGATTGTTCTCCCAGCTGATGAATTGGTTCGCTCGAGTAAACAAATTTTCCTAATCTTTCTGTTCAAGCGCCATCTAC,0.308
5,GATGATTGTTCTCCCAGCTGATGAATTATCTGAATCGAGTAAACAAATTTTCCTAATCTTTCTGTTCAAGCGCCATCTAC,0.229
6,GATGATTGTTCTCCCAGCTGATGAATTGTTCATTTCGAGTAAACAAATTTTCCTAATCTTTCTGTTCAAGCGCCATCTAC,0.475
7,GATGATTGTTCTCCCAGCTGATGAATTAAGTAAATCGAGTAAACAAATTTTCCTAATCTTTCTGTTCAAGCGCCATCTAC,0.357
8,GATGATTGTTCTCCCAGCTGATGAATTTCACAATTCGAGTAAACAAATTTTCCTAATCTTTCTGTTCAAGCGCCATCTAC,0.348
9,GATGATTGTTCTCCCAGCTGATGAATTTAGAGGTTCGAGTAAACAAATTTTCCTAATCTTTCTGTTCAAGCGCCATCTAC,0.465
10,GATGATTGTTCTCCCAGCTGATGAATTGTGTCAGTCGAGTAAACAAATTTTCCTAATCTTTCTGTTCAAGCGCCATCTAC,1.22
11,GATGATTGTTCTCCCAGCTGATGAATTTCAGTGTTCGAGTAAACAAATTTTCCTAATCTTTCTGTTCAAGCGCCATCTAC,0.747
12,GATGATTGTTCTCCCAGCTGATGAATTCTTCGAATCGAGTAAACAAATTTTCCTAATCTTTCTGTTCAAGCGCCATCTAC,0.202
13,GATGATTGTTCTCCCAGCTGATGAATTGGAATGCTCGAGTAAACAAATTTTCCTAATCTTTCTGTTCAAGCGCCATCTAC,0.721
14,GATGATTGTTCTCCCAGCTGATGAATTAAATACATCGAGTAAACAAATTTTCCTAATCTTTCTGTTCAAGCGCCATCTAC,0.687
15,GATGATTGTTCTCCCAGCTGATGAATTAAGGGTATCGAGTAAACAAATTTTCCTAATCTTTCTGTTCAAGCGCCATCTAC,0.641
16,GATGATTGTTCTCCCAGCTGATGAATTAATAGCCTCGAGTAAACAAATTTTCCTAATCTTTCTGTTCAAGCGCCATCTAC,0.628
17,GATGATTGTTCTCCCAGCTGATGAATTGCACCATTCGAGTAAACAAATTTTCCTAATCTTTCTGTTCAAGCGCCATCTAC,1.12
18,GATGATTGTTCTCCCAGCTGATGAATTTAGATTGTCGAGTAAACAAATTTTCCTAATCTTTCTGTTCAAGCGCCATCTAC,1.6
19,GATGATTGTTCTCCCAGCTGATGAATTCTAATCCTCGAGTAAACAAATTTTCCTAATCTTTCTGTTCAAGCGCCATCTAC,0.317
20,GATGATTGTTCTCCCAGCTGATGAATTCCATATATCGAGTAAACAAATTTTCCTAATCTTTCTGTTCAAGCGCCATCTAC,0.64

# — paper PMC12820563
